Results taken from publication PMC4336329 (PLoS ONE, 2015).
The whole screen tested about 310,000 compounds, of which about 2,200 (0.71%) showed an effect of 50% or more. The effect is printed as a negative number. This is one part of the list.

Molecular target: human ether-à-go-go-related gene (hERG) potassium channel (human, UniProt Q12809)
Assay: primary screen, population patch clamp on CHO cells stably expressing hERG

human ether-à-go-go-related gene (hERG) potassium channel, sequence (Q12809 whole entry, looked up): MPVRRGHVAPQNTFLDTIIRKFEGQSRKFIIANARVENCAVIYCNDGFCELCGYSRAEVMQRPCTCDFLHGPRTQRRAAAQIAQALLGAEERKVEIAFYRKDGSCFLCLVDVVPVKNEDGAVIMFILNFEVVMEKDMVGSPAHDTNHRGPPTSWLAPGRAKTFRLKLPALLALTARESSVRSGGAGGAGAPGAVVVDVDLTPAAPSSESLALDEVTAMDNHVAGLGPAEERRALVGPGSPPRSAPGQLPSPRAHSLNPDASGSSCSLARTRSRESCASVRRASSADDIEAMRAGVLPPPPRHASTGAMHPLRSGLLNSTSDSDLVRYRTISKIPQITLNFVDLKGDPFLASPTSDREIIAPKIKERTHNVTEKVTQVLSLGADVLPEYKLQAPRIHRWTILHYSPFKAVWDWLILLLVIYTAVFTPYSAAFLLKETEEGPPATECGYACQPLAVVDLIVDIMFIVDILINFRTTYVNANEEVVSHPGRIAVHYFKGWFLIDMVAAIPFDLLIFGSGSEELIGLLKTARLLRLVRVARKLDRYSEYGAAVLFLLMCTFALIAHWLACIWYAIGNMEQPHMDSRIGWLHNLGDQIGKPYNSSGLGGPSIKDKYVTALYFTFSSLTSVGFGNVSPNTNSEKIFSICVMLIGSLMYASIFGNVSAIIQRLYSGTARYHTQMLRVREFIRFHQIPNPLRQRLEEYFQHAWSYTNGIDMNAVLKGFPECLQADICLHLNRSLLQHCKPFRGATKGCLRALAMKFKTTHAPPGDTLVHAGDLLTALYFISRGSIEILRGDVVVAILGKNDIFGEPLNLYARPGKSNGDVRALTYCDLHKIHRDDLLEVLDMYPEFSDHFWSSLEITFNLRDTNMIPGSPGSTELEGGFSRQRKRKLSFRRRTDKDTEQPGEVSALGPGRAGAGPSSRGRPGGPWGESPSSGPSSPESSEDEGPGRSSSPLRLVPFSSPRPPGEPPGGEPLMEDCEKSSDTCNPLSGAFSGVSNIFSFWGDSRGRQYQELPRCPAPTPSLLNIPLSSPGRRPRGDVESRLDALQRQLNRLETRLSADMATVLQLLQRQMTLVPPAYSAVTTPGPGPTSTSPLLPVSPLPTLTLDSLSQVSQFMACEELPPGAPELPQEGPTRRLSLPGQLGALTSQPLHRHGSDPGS

Row | Compound | hERG current change (%, negative = inhibition) at 1uM
1 | COc1ccc(OCC(=O)NCC(c2cccs2)N2CCOCC2)cc1 (stereo not shown) | 8.74%
2 | CNc1cnn(-c2ccc(C)cc2)c(=O)c1Cl | 16%
3 | O=C(NC(NC(=S)Nc1ccccc1C(=O)O)C(Cl)(Cl)Cl)c1ccco1 (stereo not shown) | 5.62%
4 | CCC(C)C1Nc2ccc(C(=O)NCCc3ccc(OC)c(OC)c3)cc2NC1=O (stereo not shown) | 11%
5 | CCn1c(COc2ccccc2C)nnc1SCC(=O)NC1CCCC1 | 18.5%
6 | Cc1csc(NC(=O)c2ccc(COc3ccccc3)o2)n1 | 3.65%
7 | O=C1CC(c2ccccc2)CC(O)=C1C=Nc1ccccc1Cl (stereo not shown) | 11.1%
8 | Cc1ccc(C)c(NC(=S)N2CCC(NC(=O)c3ccco3)CC2)c1 | 10.7%
9 | CC(=O)Nc1ccc(S(=O)(=O)Nc2ccc3[nH]c(=O)[nH]c3c2)cc1 | 22.1%
10 | CCC1=C(OC(=O)N(CC)CC)N2C(=O)OC(=NCC3CC3)[C@]2(C)[C@H]2C1=CC[C@H]1C(=O)NC(=O)[C@H]12 | 10.4%
11 | O=C(NCc1ccco1)C(=O)NCC1OCCN1S(=O)(=O)c1ccc(Br)cc1 (stereo not shown) | 0.401%
12 | CCOC(=O)C1=C(COC(=O)c2cc(S(=O)(=O)N(C)C)ccc2C)NC(=O)NC1C (stereo not shown) | 1.46%
13 | COc1ccc(CNC(=O)C2CCCN(S(=O)(=O)c3cccc4nsnc34)C2)cc1 (stereo not shown) | 6.4%
14 | COc1ccc(C(C(=O)NC2CCCC2)N(C(=O)c2snc(C(N)=O)c2N)c2cc(C)ccc2OC)cc1OC (stereo not shown) | 5.27%
15 | O=C1CC(N2CCC(c3nc4ccccc4[nH]3)CC2)C(=O)N1c1ccccc1F (stereo not shown) | 3.89%
16 | Cc1cc(C)c2c(n1)SCC(=O)N2CC(=O)Nc1ccc(Br)c(C)c1 | 3.6%
17 | Cc1nc(CC(=O)Nc2nc(-c3ccccc3)cs2)cs1 | 0.165%
18 | CCCCCC/C(C=O)=C\c1ccccc1 | 22.1%
19 | COc1ccc(C2CC(c3cccs3)=NN2S(=O)(=O)c2ccc(C)cc2)cc1 (stereo not shown) | 9.62%
20 | CCCCn1c2c(c(=N)c3ccccc31)CCC2.I | -16.6%
21 | Nc1[nH]c(=S)[nH]c(=O)c1-c1ccccc1 | 11.2%
22 | CC(C)(C)c1ccc(C(=O)NCCCNC(=O)c2ccco2)cc1 | 7.71%

Row | Compound | hERG current change (%, negative = inhibition) at 1uM
23 | O=C1CCC(C(=O)N2CCC(O)CC2)CN1CCc1ccc(Cl)cc1 (stereo not shown) | 7.44%
24 | CN(C)c1nccc(NCc2ccccc2)c1C#N | 4.34%
25 | Cc1ccc(C)c(OCCC(=O)NNC(=O)c2cc(C)oc2C)c1 | 0.801%
26 | O=C(N/N=C(\c1ccccc1)c1cccnc1)c1cccc(F)c1 | 2.06%
27 | COc1ccc(CC(=O)Nc2cc(C)c3c(=O)oc4ccccc4c3n2)cc1 | 6.05%
28 | Cc1ccc(S(=O)(=O)N2CCC(C(=O)N[C@H](C(=O)N3CCN(C)CC3)C(C)C)CC2)cc1 | 17.1%
29 | CCN(CC)N=Nc1ccc(S(=O)(=O)N2CCSC2C(=O)[O-])cc1.[K+] (stereo not shown) | 19.9%
30 | COc1cc(NC(=O)N2CCOCC2)cc(OC)c1 | 7.66%
31 | Cc1ccc(NC(=O)Nc2c(Cl)cccc2Cl)cn1 | 7.42%
32 | COc1ccc(S(=O)(=O)NC(CC(=O)NCCc2ccc(OC)c(OC)c2)c2ccco2)cc1 (stereo not shown) | 2.5%
33 | C=CCn1c(SCC(=O)Nc2sccc2C(N)=O)nc2sc(CC)cc2c1=O | 3.1%
34 | Cc1nn(C)cc1/C=C/C(=O)c1cccs1 | 8.48%
35 | Cc1nc(-c2ccccc2)sc1C1(C)CC(c2cccc([N+](=O)[O-])c2)=NO1 (stereo not shown) | 14.9%
36 | COc1ccc(NC(=O)[C@H](NC(=O)[C@@H]2Cc3ccccc3CN2)c2ccccc2)cc1 | 5.49%
37 | CCOc1ccc(NC(=O)CCc2nnc3ccc(N4CCC5(CC4)OCCO5)nn23)cc1 | 15.8%
38 | Cc1nc(SCC(=O)NC2CCS(=O)(=O)C2)c2c(C)c(C)sc2n1 (stereo not shown) | 12.3%
39 | O=C(O)c1nn(CC(=O)N2CCN(c3ncc(C(F)(F)F)cc3Cl)CC2)c(=O)c2ccccc12 | 8.31%
40 | CCOC(=O)Cc1csc(SCC(=O)Nc2cc(C)ccc2OC)n1 | 22.5%
41 | Cc1[nH]c2ccccc2c1/C=N/Nc1nncn1N.Cl | 6.39%
42 | Cc1ccccc1C(=O)NCCNc1ccc([N+](=O)[O-])cc1 | 7.46%
43 | O=C(OCc1nnc(-c2ccccc2)o1)c1ccc2ccccc2n1 | 16.2%
44 | O=C(Nc1ccc(Cl)c(C(F)(F)F)c1)[C@@H]1CC=C[C@@H]2CCN(C3CC3)C(=O)[C@@H]21 | 9.85%

Row | Compound | hERG current change (%, negative = inhibition) at 1uM
45 | COc1cc(S(=O)(=O)Nc2ccccc2)ccc1N=Cc1c(C)[nH]n(-c2ccc(C)cc2)c1=O | 4.83%
46 | COc1ccc(S(=O)(=O)N2CCOC2CNC(=O)C(=O)NCc2ccco2)cc1 (stereo not shown) | 6.84%
47 | Cc1cc(C)cc(NC(=S)Nc2cccc3ccccc23)c1 | -0.413%
48 | CCOC(=O)c1c(C)c(C(=O)Nc2ccc(N(C)C)cc2)c(C)n1CC | 1.38%
49 | CC1(C)CC2CC(C)(CN2C(=O)c2cc(-c3ccccc3O)on2)C1 (stereo not shown) | 9.29%
50 | NC1=NC(=O)CC(C(=O)NCc2ccccc2)S1 (stereo not shown) | 18.5%
51 | CCOC(=O)NCC(C)(C)CNC(=O)OCC | 10.6%
52 | C[C@@H]1C2C[C@@]34COC(=O)C3=CC=C[C@H]4[C@@]13C[C@H](c1ccoc1)O[C@@H]3O2 | -10.3%
53 | Cc1cc(C)n(-c2ccc(C(=O)NC3CCCCC3)cc2)n1 | 7.14%
54 | Cn1cc(C(=O)OCC2CCN(CCNS(C)(=O)=O)CC2)c2ccccc21 | -0.138%
55 | COc1cc(C2NC(=O)CS2)cc(OC)c1OC (stereo not shown) | 5.84%
56 | C=CCn1c(C(C)NC(=O)c2cccs2)n[nH]c1=S (stereo not shown) | 11.2%
57 | COC(=O)c1nn(-c2ccc(OC)cc2)c(=O)cc1Oc1ccccc1 | -4.17%
58 | Clc1ccc2nc(-c3ccccc3)cn2c1 | 12.4%
59 | CC1(C)Cc2c(C#N)c(NCCN3CCOCC3)nc(-c3ccco3)c2CO1 | 5.41%
60 | Cc1cc(=O)n2nc(N3CCCC(C(=O)N4CCN(C)CC4)C3)sc2n1 (stereo not shown) | -1.41%
61 | CCn1c(CNc2ccc(OC)cc2)nnc1SCC(=O)Nc1ccc(F)cc1 | -8.41%
62 | O=C(NCc1ccccn1)Nc1cccc(Cl)c1Cl | 14.3%
63 | COc1ccc(OCC(=O)NC2CCCc3ccccc32)cc1 (stereo not shown) | 11.3%
64 | COc1cc2c(cc1OC)C(c1ccc([N+](=O)[O-])cc1)N(C(C)=O)CC2 (stereo not shown) | 5.11%
65 | Cn1ccnc1SCC(=O)Nc1ccc(Oc2ccccc2)cc1 | 11.3%
66 | O=C(NCC(c1ccco1)N1CCN(c2ccccc2F)CC1)c1cccs1 (stereo not shown) | 7.63%

Row | Compound | hERG current change (%, negative = inhibition) at 1uM
67 | CC(=O)c1ccc(O)c(CO)c1 | 3.8%
68 | O=C(CN1CCCCCC1)Nc1ccc(Br)cc1 | -15.2%
69 | O=S(=O)(c1ccc(-c2nnc(SCc3nnc(-c4ccccc4)o3)o2)cc1)N1CCCC1 | 4.95%
70 | Cc1cc(=O)c2ccccc2n1Cc1ccccc1 | 5.61%
71 | Cc1ccc(CSc2nc3nc(C)cc(C)n3n2)cc1 | 13.5%
72 | C/C(Cc1ccccc1)=N\NC(=O)CNC(=O)c1ccc(Cl)cc1Cl | -24.7%
73 | O=C(Nc1ccc(Oc2cccc(C(F)(F)F)c2)nc1)c1ccco1 | 11.7%
74 | O=C1CC2(CCN(C(=O)c3ccccc3Cl)CC2)Oc2ccccc21 | -27.6%
75 | Cc1cc[n+](Cc2ccccc2)cc1.[O-][Cl+3]([O-])([O-])[O-] | 12.8%
76 | CCOC(=O)N1CCN(C(=O)c2ccc(Cl)c(S(=O)(=O)N3CCCC3)c2)CC1 | 4.18%
77 | CCOC(=O)c1nn(-c2ccc(C)cc2)c(=O)cc1OCC(=O)Nc1cc(C)ccc1OC | 6.86%
78 | CCC(C(=O)N1CCCC1)n1nc(C)c2c(C)n(-c3ccccc3)nc2c1=O (stereo not shown) | 1.63%
79 | CC(NC(=O)c1ccc(N2CCCC2=O)cc1)c1ccccc1 (stereo not shown) | -0.663%
80 | Cc1cccn2c(=O)c3cc(C(=O)NCCc4ccccc4)c(=N)n(Cc4ccco4)c3nc12 | -35.5%
81 | COc1ccc(C(=O)CSc2ncnc3nc[nH]c23)cc1 | 7.53%
82 | COc1ccc(CNC(=O)C2CCC(=O)N(CC3CCCCC3)C2)cc1 (stereo not shown) | 11.9%
83 | CCC(C)NC(=O)C1(NC(=O)Nc2ccccc2)CCCCC1 (stereo not shown) | 15.9%
84 | CCN(CC)C(=O)COc1coc(CN2CCN(c3ccccc3F)CC2)cc1=O | 9.54%
85 | Cc1ccc(N(CC(=O)NC2CCCCCC2)S(=O)(=O)c2c(C)nn(C)c2C)cc1 | -18.3%
86 | O=C(NCCCN1CCOCC1)c1cc(Cl)ccc1OCc1ccccc1 | -4.87%
87 | CCN(CC)S(=O)(=O)c1ccc(C)c(NC(=S)NNC(=O)C2CC2)c1 | 9.43%
88 | COC(=O)c1c(NC(=O)CN2CCN(c3ccccc3)CC2)c2c(C)cccc2n1C | 1.02%
